{
  "source": "the BET-seq Pho4 binding data (Le et al. 2018)",
  "note": "Some of the results follow. The energies were worked out here from pooled read counts, against the library average; single values are noisy.",
  "data": [
    {"target": "T1, Pho4 (S. cerevisiae) (UniProt P07270)", "T1 sequence": "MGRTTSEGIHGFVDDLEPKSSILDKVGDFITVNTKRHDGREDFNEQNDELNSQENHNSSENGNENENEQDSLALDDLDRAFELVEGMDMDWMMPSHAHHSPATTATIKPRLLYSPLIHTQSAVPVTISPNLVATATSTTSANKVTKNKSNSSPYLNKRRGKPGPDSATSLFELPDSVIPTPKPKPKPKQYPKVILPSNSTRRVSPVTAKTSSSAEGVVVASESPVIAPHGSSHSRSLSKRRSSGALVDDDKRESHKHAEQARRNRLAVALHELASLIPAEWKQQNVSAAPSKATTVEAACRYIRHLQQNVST", "test": "relative binding free energy (BET-seq); higher = weaker binding", "details": "reference: library average", "units": {"relative binding free energy": "kcal/mol"}, "values": [
      {"sequence": "AATGGCACGTGGTTTT", "relative binding free energy": -0.08},
      {"sequence": "GTATGCACGTGATGCT", "relative binding free energy": 0.16},
      {"sequence": "TGTTGCACGTGTGGCA", "relative binding free energy": 0.07},
      {"sequence": "ATGTTCACGTGCTAAT", "relative binding free energy": 0.28},
      {"sequence": "TTTCTCACGTGTCGGG", "relative binding free energy": 0.4},
      {"sequence": "GCTGTCACGTGATGTG", "relative binding free energy": 0.22},
      {"sequence": "GAGTGCACGTGTTGGA", "relative binding free energy": 0},
      {"sequence": "TTAATCACGTGTATCG", "relative binding free energy": 0.06},
      {"sequence": "GCGGTCACGTGGGGCT", "relative binding free energy": 0.03},
      {"sequence": "TGGTGCACGTGAGTCT", "relative binding free energy": 0.1},
      {"sequence": "CATTGCACGTGATTGT", "relative binding free energy": 0.13},
      {"sequence": "GGGCGCACGTGAATGT", "relative binding free energy": 0.08},
      {"sequence": "TTCCGCACGTGGGTTT", "relative binding free energy": -0.22},
      {"sequence": "TATTTCACGTGCCGGG", "relative binding free energy": 0.36},
      {"sequence": "GAATTCACGTGATTGG", "relative binding free energy": 0.29},
      {"sequence": "ATTTACACGTGACTGG", "relative binding free energy": 0.3},
      {"sequence": "GGGTGCACGTGAGTAC", "relative binding free energy": 0.15},
      {"sequence": "GTTTACACGTGGTCAA", "relative binding free energy": 0.06},
      {"sequence": "GCTTGCACGTGGCTCG", "relative binding free energy": 0.12},
      {"sequence": "TTTTGCACGTGTGTCC", "relative binding free energy": 0.14},
      {"sequence": "TTTGTCACGTGGGACG", "relative binding free energy": 0.11},
      {"sequence": "TGTATCACGTGATTTA", "relative binding free energy": 0.26},
      {"sequence": "TATTGCACGTGGCTAT", "relative binding free energy": -0.22},
      {"sequence": "GTGCGCACGTGTGGAG", "relative binding free energy": -0.09},
      {"sequence": "ATGCGCACGTGCGTGT", "relative binding free energy": -0.21},
      {"sequence": "CGAGGCACGTGTCGTG", "relative binding free energy": -0.07},
      {"sequence": "AAGGGCACGTGGACGG", "relative binding free energy": -0.19},
      {"sequence": "GTGTGCACGTGGATTG", "relative binding free energy": -0.12},
      {"sequence": "AGATGCACGTGATTAG", "relative binding free energy": 0.07},
      {"sequence": "GATGACACGTGTTAAG", "relative binding free energy": 0.15},
      {"sequence": "TATTTCACGTGAGCTT", "relative binding free energy": 0.41},
      {"sequence": "TTAGGCACGTGGCCTT", "relative binding free energy": -0.21},
      {"sequence": "AGGAGCACGTGCTGTA", "relative binding free energy": -0.21},
      {"sequence": "GGGATCACGTGGCTGT", "relative binding free energy": 0.14},
      {"sequence": "TGGGTCACGTGGCGGT", "relative binding free energy": -0.03},
      {"sequence": "CGTGACACGTGTGAAG", "relative binding free energy": 0.11},
      {"sequence": "TTTGACACGTGGGGTT", "relative binding free energy": -0.06},
      {"sequence": "TGGGGCACGTGTTAAG", "relative binding free energy": -0.06},
      {"sequence": "CTGTGCACGTGGGTCA", "relative binding free energy": -0.2},
      {"sequence": "TAGATCACGTGTTTGA", "relative binding free energy": 0.11},
      {"sequence": "TCTGACACGTGGGGGA", "relative binding free energy": -0.02},
      {"sequence": "TCTGTCACGTGTCGGG", "relative binding free energy": 0.04},
      {"sequence": "CTATGCACGTGTGTAG", "relative binding free energy": -0.17},
      {"sequence": "CGAAGCACGTGGTGTG", "relative binding free energy": -0.27},
      {"sequence": "GGGGACACGTGTTATG", "relative binding free energy": 0.03},
      {"sequence": "TTTGCCACGTGGGGGA", "relative binding free energy": -0.15},
      {"sequence": "TTGCTCACGTGTGGCA", "relative binding free energy": 0.18},
      {"sequence": "GTGTTCACGTGTTCAG", "relative binding free energy": 0.43},
      {"sequence": "GGTACCACGTGGGGAT", "relative binding free energy": -0.06},
      {"sequence": "GTTGACACGTGACGTT", "relative binding free energy": 0.04},
      {"sequence": "GGTTGCACGTGAGAAG", "relative binding free energy": 0.12},
      {"sequence": "GATGTCACGTGTGAAG", "relative binding free energy": 0.17},
      {"sequence": "GCGTACACGTGTGGGC", "relative binding free energy": 0.14},
      {"sequence": "TGTTCCACGTGGTATT", "relative binding free energy": -0.2},
      {"sequence": "TATCGCACGTGGGGAT", "relative binding free energy": -0.12},
      {"sequence": "TATCGCACGTGTTGTA", "relative binding free energy": 0.03},
      {"sequence": "TGGGGCACGTGGTTAC", "relative binding free energy": -0.13},
      {"sequence": "GCCGTCACGTGTTTGT", "relative binding free energy": 0.34},
      {"sequence": "GGTTACACGTGGCAAG", "relative binding free energy": 0.17},
      {"sequence": "GTGTTCACGTGGGAAC", "relative binding free energy": 0.34},
      {"sequence": "ATAGGCACGTGGAGGA", "relative binding free energy": -0.13},
      {"sequence": "ATGGTCACGTGCCGGT", "relative binding free energy": -0.04},
      {"sequence": "TGGTACACGTGCTGTA", "relative binding free energy": -0.01},
      {"sequence": "TGTTACACGTGGGTTT", "relative binding free energy": 0.03},
      {"sequence": "CTGTTCACGTGGGTAG", "relative binding free energy": 0.15},
      {"sequence": "CATGGCACGTGTTGGT", "relative binding free energy": 0.03},
      {"sequence": "GTGGGCACGTGAAGAC", "relative binding free energy": 0.26},
      {"sequence": "TTAATCACGTGGGTGA", "relative binding free energy": -0.01},
      {"sequence": "TTGGACACGTGTCAGG", "relative binding free energy": 0.1},
      {"sequence": "TTTTGCACGTGAATTT", "relative binding free energy": 0.33},
      {"sequence": "TATGTCACGTGAGATT", "relative binding free energy": 0.43},
      {"sequence": "TTTTTCACGTGTCCTT", "relative binding free energy": 0.16},
      {"sequence": "GGTTCCACGTGAGAGG", "relative binding free energy": 0.43},
      {"sequence": "TGGCACACGTGATGGT", "relative binding free energy": 0.13},
      {"sequence": "CTTGTCACGTGATGGG", "relative binding free energy": 0.07},
      {"sequence": "TTCGACACGTGGGGTC", "relative binding free energy": -0.09},
      {"sequence": "GGATGCACGTGTAAAA", "relative binding free energy": 0.2},
      {"sequence": "CATTTCACGTGGGGCG", "relative binding free energy": 0.16},
      {"sequence": "TGGGGCACGTGAGTGA", "relative binding free energy": 0.08},
      {"sequence": "GGGGTCACGTGAACTT", "relative binding free energy": 0.29},
      {"sequence": "TTGATCACGTGGGCAA", "relative binding free energy": -0.07},
      {"sequence": "TGTGCCACGTGTGAGC", "relative binding free energy": -0.01},
      {"sequence": "GATGCCACGTGTTGTA", "relative binding free energy": 0.01},
      {"sequence": "GTTTTCACGTGCCTGT", "relative binding free energy": 0.22},
      {"sequence": "AGGCTCACGTGAAGGG", "relative binding free energy": 0.24},
      {"sequence": "TGTGTCACGTGCAAGG", "relative binding free energy": -0.12},
      {"sequence": "GGTCACACGTGGTCGT", "relative binding free energy": 0.19},
      {"sequence": "GTTTACACGTGTACGT", "relative binding free energy": 0.21},
      {"sequence": "AAGTACACGTGTGTGC", "relative binding free energy": 0.07},
      {"sequence": "TTGTTCACGTGCTGCT", "relative binding free energy": 0.18},
      {"sequence": "TGTGACACGTGCGTGT", "relative binding free energy": -0.08},
      {"sequence": "GAAATCACGTGAGGGG", "relative binding free energy": 0.32},
      {"sequence": "CGTATCACGTGGTTAT", "relative binding free energy": 0.1},
      {"sequence": "AATTTCACGTGGCTAT", "relative binding free energy": 0.27},
      {"sequence": "TACATCACGTGTAGTT", "relative binding free energy": 0.18},
      {"sequence": "AGGCGCACGTGGGTCA", "relative binding free energy": -0.27},
      {"sequence": "GGTAGCACGTGTTAGG", "relative binding free energy": 0.07},
      {"sequence": "CTAGGCACGTGCTTGG", "relative binding free energy": -0.29},
      {"sequence": "AGGCGCACGTGTGGCG", "relative binding free energy": -0.07},
      {"sequence": "ATATTCACGTGGTGTC", "relative binding free energy": 0.06},
      {"sequence": "AGCTGCACGTGTGGAG", "relative binding free energy": 0},
      {"sequence": "TTGTACACGTGAGCGT", "relative binding free energy": 0.15},
      {"sequence": "TAAATCACGTGAGAGG", "relative binding free energy": 0.37},
      {"sequence": "GGTGGCACGTGAAGGT", "relative binding free energy": 0.27},
      {"sequence": "TATGACACGTGTTTTG", "relative binding free energy": 0.07},
      {"sequence": "GTCAGCACGTGTTGTA", "relative binding free energy": 0.09},
      {"sequence": "CGGGTCACGTGCGTGG", "relative binding free energy": 0.03},
      {"sequence": "GGGGTCACGTGTCTTC", "relative binding free energy": 0.17},
      {"sequence": "TAGAGCACGTGGTGCA", "relative binding free energy": -0.26},
      {"sequence": "TTTAACACGTGTTACT", "relative binding free energy": -0.11},
      {"sequence": "GTGAACACGTGTGCTA", "relative binding free energy": 0.19},
      {"sequence": "TGGTACACGTGTGGGC", "relative binding free energy": 0.2},
      {"sequence": "TGTGTCACGTGGGATA", "relative binding free energy": 0.1},
      {"sequence": "ATGGGCACGTGATAAA", "relative binding free energy": 0},
      {"sequence": "GCGCTCACGTGTTGGG", "relative binding free energy": 0.18}
    ]}
  ]
}
